From the supplement of paper PMC12217912
Some of the results follow. The full chains were built here from the parent and the listed change. Inactive controls read about 0.05.

B1: TEV protease; numbered along this chain (parent)
chain: MGESLFKGPRDYNPISSSICHLTNESDGHTTSLYGIGFGPFIITNKHLFRRNNGTLVVQSLHGVFKVKDTTTLQQHLVDGRDMIIIRMPKDFPPFPQKLKFREPQREERICLVTTNFQTKSMSSMVSDTSCTFPSGDGIFWKHWIQTKDGQCGSPLVSTRDGFIVGIHSASNFTNTNNYFTSVPKNFMELLTNQEAQQWVSGWRLNADSVLWGGHKVFMVKPEEPFQPVKEATQL

Variants of: B1
Assay: raw area under fraction-flipped curve 0-4 h after induction (AUC4h, not background-subtracted), DNA-recorder readout of cleavage of the substrate (dimensionless); higher = more cleavage of the substrate by the protease variant
Settings: temperature: 34 °C; time window: 0-4 h after rhamnose induction
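Further: Bxb1 expression induced with 0.2% (w/v) L-rhamnose at OD600 near 0.5, cultures sampled hourly, flipped fraction per protease–substrate barcode pair counted by paired-end Illumina sequencing.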

Variant | area with substrate ENLYFQG | area with substrate ENLYFQH | area with substrate ENLYFQK | area with substrate ENLYFQL | area with substrate ENLYFQM | area with substrate ENLYFQN | area with substrate ENLYFQR | area with substrate ENLYFQS | area with substrate ENLYFQV | area with substrate ENLYFQT
MGESLFKGPRDYNPISSSICHLTNESDGHTTSLYGIGFGPFIITNKHLFRRNNGTLVVQSLHGVFKVKDTTTLQQHLVDGRDMIIMRMPKDFPPFPQKLKFREPQREERICLVTTNFQTKSMSSMVSDTSCTFPSGDGIFWKHWIQTKDGQCGSPLVSTRDGFIVGIHSASNFTNTNNYFTSVPKNFMELLTNQEAQQWVSGWRLNADSVLWGGHKVFMVKPEEPFQPVKEATQL [I86M] | 0.112 | 0.13 | 0.0478 | 0.046 | 0.103 | 0.0765 | 0.0532 | 0.101 | 0.0693 | –
MGESLFKGPRDYNPISSSICHLTNESDGHTTSLYGIGFGPFIITNKHLFRRNNGTLVVQSLHGVFKVKDTSTLQQHLVDGRDMIIIRMPKDFPPFPQKLKFREPQREERICLVTTNFQTKSMSSMVSDTSCTFPSGDGIFWKHWIQTKDGQCGSPLVSTRDGFIVGIHSASNFTNTNNYFTSVPKNFMELLTNQEAQQWVSGWRLNADSVLWGGHKVFMVKPEEPFQPVKEATQL [T71S] | 0.085 | – | – | 0.0502 | 0.116 | – | – | 0.0934 | – | 0.0793
MGESLFKGPRDYNPISSSICHLTNESDGHTTSLYGIGFGPFIITNKHLFRRNNGTLVVQSLHGVFKVKDTTTLQQHLVDGRDMIIIRMPKDFPPFPQKLKFREPQREERICLVTTNFQTKSMSSMVSDTSCTFPSGDGIFWKHWIQTKDGQCGSPLVSTRDGFIVGIHSASNFTNTNNYFTSVPKNFMELLTNQEAQQWVSGWRQNADSVLWGGHKVFMVKPEEPFQPVKEATQL [L205Q] | 0.163 | – | 0.0729 | 0.0868 | – | – | 0.0725 | 0.0833 | – | –
MGESLFKGPRDYNPISSSICHLTNESDGHTTSLYGIGFGPFIITNKHLFRRNNGTLVAQSLHGVFKVKDTTTLQQHLVDGRDMIIIRMPKDFPPFPQKLKFREPQREERICLVTTNFQTKSMSSMVSDTSCTFPSGDGIFWKHWIQTKDGQCGSPLVSTRDGFIVGIHSASNFTNTNNYFTSVPKNFMELLTNQEAQQWVSGWRLNADSVLWGGHKVFMVKPEEPFQPVKEATQL [V58A] | 0.09 | – | – | – | 0.0919 | – | – | 0.099 | 0.065 | –
MGESLFKGPRDYNPISSSICHLTNESDGHTTSLYGIGFGPFIITNKHLFRRNNGTLVVQSLHGVFKVKDTTTLQQHLVDGRDMIIIRMPKDFPPFPQKLKFREPQREERICLVTTNFQTKSMSSMVSDTSCTFPSGDGIFWKHWIQTKDGQCGSPLVSTRDGFIVGIHSPSNFTNTNNYFTSVPKNFMELLTNQEAQQWVSGWRLNADSVLWGGHKVFMVKPEEPFQPVKEATQL [A170P] | 0.06 | – | 0.0568 | – | – | – | 0.0643 | 0.0576 | 0.0578 | 0.0537
MGESLFKGPRDYNPISSSICHLTNESDGHTTSLYGIGFGPFIITNKHLFRRNNGTLVVQSLHGVFKVKDTTTLQQHLVDGRDMIIIRMPKDFPPFPQKLKFREPQREERICLVTTNFQTKSMSSMVSDTSCTFPSGDGIFWKHWIQTKDGQCGSPLVSTRDGFIVGIHSASNFTNTNNYFTSVPKNFMELLTNQEAQQWVSGWRLNAASVLWGGHKVFMVKPEEPFQPVKEATQL [D208A] | 0.0862 | – | – | 0.0673 | – | – | 0.0623 | 0.0764 | 0.0855 | –
MGESLFTGPRDYNPISSSICHLTNESDGHTTSLYGIGFGPFIITNKHLFRRNNGTLVVQSLHGVFKVKDTTTLQQHLVDGRDMIIIRMPKDFPPFPQKLKFREPQREERICLVTTNFQTKSMSSMVSDTSCTFPSGDGIFWKHWIQTKDGQCGSPLVSTRDGFIVGIHSASNFTNTNNYFTSVPKNFMELLTNQEAQQWVSGWRLNADSVLWGGHKVFMVKPEEPFQPVKEATQL [K7T] | 0.0824 | – | – | – | – | 0.0763 | 0.0632 | 0.0837 | – | –
MGESLFKGPRDYNPISSSICHLTNESDGHTTSLYGIGFGPFIITNKHLFRRNNGTLVVQSLHGVFKVKDTTTLQQHLVDGRDMIIIRMPKDFPPFPQKLKFREPQREERICLVTTNFQTKSMSSMVSDTSCTFPSGDGIFWKHWIQTKDGQCGSPLVSTRDGFIVGIHSASNFTNTNNYFTSVPKNFMELLTNQEAQQWVSGWRLNADSVLWGGHKVFMVKPEEPFQPVKEATQR [L235R] | 0.116 | – | – | – | – | 0.126 | – | 0.116 | – | –
MGESLFKGPRDYNPISSSICHLTNESDGHTTSLYGIGFGPFIITNKHLFRRNNGTLVVQSLHGVFKVKDTTTLQQHLVDGRDMIIIRMPKDFPPFPQKLKFREPQREERICLVTTNFQTKSMSSMVSDTSCTFPSGDGIFWKHWIQTKDGQCGSPLVSTRDGFIVGIHSASNFTNTNNYFTSVPKNFMELLTNQEPQQWVSGWRLNADSVLWGGHKVFMVKPEEPFQPVKEATQL [A196P] | – | 0.0732 | 0.0595 | – | 0.0642 | – | 0.0626 | 0.0942 | – | –
MGESLFKGPRDYNPISSSICHLTNESDGHTTSLYGIGFGPFIITNKHLFRRNNGTLVVQSLHGVFKVKDTTTLQQHLVDGRDMIIIRMPKDFPPFPQKLKFREPQREERICLVTTNFQTKSMSSMVSDTSCTFPSGDGIFWKHWIQTKDGQCGSPLVSTRDGFIVGIHSASNFTNTNNYFTSVPKNFMELLTNQEAQQWVSGWRLNADTVLWGGHKVFMVKPEEPFQPVKEATQL [S209T] | – | 0.0831 | – | – | – | – | – | 0.117 | – | 0.0696
MGESLFKGPRDYNPISSSICHLTNESDGHTTSLYGIGFGPFIITNKHLFRRNNGTLVVQSLHGVFKVKDTTTLQQHLVDGRDMIIIRMPKDFPPFPQKLKFREPQREEMICLVTTNFQTKSMSSMVSDTSCTFPSGDGIFWKHWIQTKDGQCGSPLVSTRDGFIVGIHSASNFTNTNNYFTSVPKNFMELLTNQEAQQWVSGWRLNADSVLWGGHKVFMVKPEEPFQPVKEATQL [R109M] | – | 0.0927 | 0.063 | – | – | 0.0541 | 0.0628 | 0.0933 | 0.0665 | 0.0637

Same assay, conditions: temperature: 34 °C; time window: 0-4 h after rhamnose induction

Variant | area with substrate ENLYFQW | area with substrate ENLYFQI | area with substrate ENLYFQY
MGESLFKGPRDYNPISSSICHLTNESDGHTTSLYGIGFGPFIITNKHLFRRNNGTLVVQSLHGVFKVKDTSTLQQHLVDGRDMIIIRMPKDFPPFPQKLKFREPQREERICLVTTNFQTKSMSSMVSDTSCTFPSGDGIFWKHWIQTKDGQCGSPLVSTRDGFIVGIHSASNFTNTNNYFTSVPKNFMELLTNQEAQQWVSGWRLNADSVLWGGHKVFMVKPEEPFQPVKEATQL [T71S] | 0.0686 | – | –
MGESLFKGPRDYNPISSSICHLTNESDGHTTSLYGIGFGPFIITNKHLFRRNNGTLVVQSLHGVFKVKDTTTLQQHLVDGRDMIIIRMPKDFPPFPQKLKFREPQREERICLVTTNFQTKSMSSMVSDTSCTFPSGDGIFWKHWIQTKDGQCGSPLVSTRDGFIVGIHSASNFTNTNNYFTSVPKNFMELLTNQEAQQWVSGWRQNADSVLWGGHKVFMVKPEEPFQPVKEATQL [L205Q] | 0.0517 | – | –
MGESLFKGPRDYNPISSSICHLTNESDGHTTSLYGIGFGPFIITNKHLFRRNNGTLVVQSLHGVFKVKDTTTLQQHLVDGRDMIIIRMPKDFPPFPQKLKFREPQREERICLVTTNFQTKSMSSMVSDTSCTFPSGDGIFWKHWIQTKDGQCGSPLVSTRDGFIVGIHSPSNFTNTNNYFTSVPKNFMELLTNQEAQQWVSGWRLNADSVLWGGHKVFMVKPEEPFQPVKEATQL [A170P] | – | 0.0507 | –
MGESLFKGPRDYNPISSSICHLTNESDGHTTSLYGIGFGPFIITNKHLFRRNNGTLVVQSLHGVFKVKDTTTLQQHLVDGRDMIIIRMPKDFPPFPQKLKFREPQREERICLVTTNFQTKSMSSMVSDTSCTFPSGDGIFWKHWIQTKDGQCGSPLVSTRDGFIVGIHSASNFTNTNNYFTSVPKNFMELLTNQEAQQWVSGWRLNADSVLWGGHKVFMVKPEEPFQPVKEATQR [L235R] | – | 0.0638 | –
MGESLFKGPRDYNPISSSICHLTNESDGHTTSLYGIGFGPFIITNKHLFRRNNGTLVVQSLHGVFKVKDTTTLQQHLVDGRDMIIIRMPKDFPPFPQKLKFREPQREERICLVTTNFQTKSMSSMVSDTSCTFPSGDGIFWKHWIQTKDGQCGSPLVSTRDGFIVGIHSASNFTNTNNYFTSVPKNFMELLTNQEPQQWVSGWRLNADSVLWGGHKVFMVKPEEPFQPVKEATQL [A196P] | – | 0.0628 | –
MGESLFKGPRDYNPISSSICHLTNESDGHTTSLYGIGFGPFIITNKHLFRRNNGTLVVQSLHGVFKVKDTTTLQQHLVDGRDMIIIRMPKDFPPFPQKLKFREPQREERICLVTTNFQTKSMSSMVSDTSCTFPSGDGIFWKHWIQTKDGQCGSPLVSTRDGFIVGIHSASNFTNTNNYFTSVPKNFMELLTNQEAQQWVSGWRLNADTVLWGGHKVFMVKPEEPFQPVKEATQL [S209T] | – | 0.0623 | –
MGESLFKGPRDYNPISSSICHLTNESDGHTTSLYGIGFGPFIITNKHLFRRNNGTLVVQSLHGVFKVKDTTTLQQHLVDGRDMIIIRMPKDFPPFPQKLKFREPQREEMICLVTTNFQTKSMSSMVSDTSCTFPSGDGIFWKHWIQTKDGQCGSPLVSTRDGFIVGIHSASNFTNTNNYFTSVPKNFMELLTNQEAQQWVSGWRLNADSVLWGGHKVFMVKPEEPFQPVKEATQL [R109M] | – | 0.0398 | 0.0926
